Assay results taken from PubChem BioAssay AID686978 (National Center for Advancing Translational Sciences (NCATS), 2013).
About 64,000 (15%) of roughly 420,000 compounds were called active. Inconclusive means that the source gave no clear call. Such entries were picked first, then a sample of the others. Calls follow the shape of the dose curve; as a rule, active = well fitted inhibition curve with a large enough effect; inconclusive = small, poorly fitted or top-dose-only effect; inactive = flat fitted curve, though single readings scatter. No potency is given beside an inconclusive call; the fits are too rough.

Assay: qHTS for Inhibitors of human tyrosyl-DNA phosphodiesterase 1 (TDP1): qHTS in cells in absence of CPT; also: nearly all actives have a fitted effect of over 55% in size
Details: DT40 Tdp1-/- hTDP1 cells, no CPT, ATP luminescence, 48 h; activity change, negative = growth inhibition: at 46.2 µM (top of the series) unless noted
How it was run: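 Chicken DT40 Tdp1-/- cells stably complemented with human TDP1 were seeded at 400 cells/well with DMSO in place of 20 nM camptothecin. After compound pinning, cells grew at least 48 hr at 37 °C; viability read by CellTiter-Glo luminescence.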
% is scaled to controls: 0 for no effect and ±100 for the full control effect; potency is read from the fitted curve at half-maximal effect; tags tell the direction and shape of the fitted curve.

SMILES	Potency	activity change, negative = growth inhibition
O=C(Cn1c(-c2cccs2)cc2cc(Cl)ccc21)N1CCN(c2ccccc2F)CC1	inconclusive [inhibitor, partial curve]	
CC(C)CNC(=O)c1cccc(NC(=O)C(C)Oc2ccccc2)c1 (stereo not given)	inconclusive [inhibitor, single point]	
O=C(Nc1cccc(Cl)c1)OCc1cncs1	inconclusive [inhibitor, single point]	
c1ccc(C2C/C(=N\N3CCOCC3)c3ccccc3O2)cc1 (stereo not given)	inconclusive [inhibitor, single point]	
Cc1ccc(C)c(NC(=O)c2ccc3c(=O)n4c(nc3c2)CCC4)c1	inconclusive [inhibitor, single point]	
NC(=O)COc1ccc2oc(=O)cc(-c3cc4ccccc4o3)c2c1	inconclusive [inhibitor, partial curve]	
Cc1cccc(N2CCN(C(=S)c3ccc4c(c3)OCO4)CC2)c1	active: 5.8 µM	
Cc1cc(C(C)c2ccccc2)c(O)c(CN2CCOCC2)c1C (stereo not given)	inconclusive [inhibitor, single point]	
O=C(Cn1ccc2cc(S(=O)(=O)N3CCCCC3)ccc21)NCc1cccc(Cl)c1	inconclusive [inhibitor, single point]	
CC1CCC(NC(=O)c2cc3c(Cl)nc4ccccc4c3s2)CC1 (stereo not given)	inconclusive [inhibitor, single point]	
CCN(CC)S(=O)(=O)c1ccc(N2CCCC2)c(C(=O)Nc2ccc(OC)c(Cl)c2)c1	inconclusive [inhibitor, single point]	
COc1ccc(OC)c(NC(=O)Nc2nc(CN)cs2)c1	inconclusive [inhibitor, single point]	
O=C(Cc1cccs1)N(Cc1ccco1)C1(C(=O)NC2CCCC2)CCCCC1	inconclusive [inhibitor, single point]	
Cc1ccc(C(=O)c2ccccc2C(=O)OCC(=O)NC(C)(C)C)cc1	inconclusive [inhibitor, single point]	
Cc1cc(S(=O)(=O)NCC(c2ccco2)S(=O)(=O)c2ccccc2)ccc1F (stereo not given)	inconclusive [inhibitor, single point]	
C/C(CC(=O)NCc1ccco1)=N\NC(=O)COc1ccc(Cl)cc1Cl	active: 20.6 µM	
CCCC(=O)Nc1ccc2c(c1)nc(CCN1CCCCC1)n2C		inactive: -1.74%
COc1cccc(-n2c(SC)nnc2-c2c[nH]c3ccccc23)c1	inconclusive [inhibitor, single point]	
O=C(Nc1ccc(S(=O)(=O)N2CCCCC2)cc1)C1CC1	inconclusive [inhibitor, single point]	
COc1ccc(F)cc1S(=O)(=O)Nc1cccc(-c2ccc(N3CCCCCC3)nn2)c1	inconclusive [inhibitor, single point]	
CC(=O)Nc1ccccc1-c1nc2ccccc2n(Cc2cccc(Br)c2)c1=O	inconclusive [inhibitor, partial curve]	
COc1ccccc1OCc1nnc(SCC(=O)Nc2ccc(N3CCOCC3)cc2)n1C		inactive: -11.6%
Cc1nn(Cc2c(Cl)cccc2Cl)c(Cl)c1/C=C/C(=O)OCC(=O)NCC(F)(F)F	inconclusive [inhibitor, single point]	
CCN1C[C@@H]2[C@@H]3C(=O)N(C)C(=O)[C@@H]3[C@](C)(C1=O)N2C(=O)c1ccc(Cl)cc1		inactive: -12.6%

SMILES	Potency	activity change, negative = growth inhibition
Cc1ccc(S(=O)(=O)N2C[C@@H](C)[C@]3(C2)[C@H](O)[C@H](OC(=O)NCc2ccccc2)C[C@H]2C(=O)N(c4ccccc4)C(=O)[C@H]23)cc1	inconclusive [inhibitor, single point]	
COc1ccc(NS(=O)(=O)c2cccc(C(=O)NNC(=O)COc3ccccc3)c2)cc1	inconclusive [inhibitor, single point]	
COC(=O)c1ccccc1NC(=O)C1CCN(C(=O)c2cc(OC)cc(OC)c2)CC1	inconclusive [inhibitor, single point]	
N#C/C=C1\n2c(nc3ccccc32)OC12CCCCC2	inconclusive [inhibitor, single point]	
CCOc1ccccc1NC(=O)C1CCCN1C(=O)OCc1ccccc1 (stereo not given)	inconclusive [inhibitor, single point]	
O=C(CSc1ccc2c(c1)OCCO2)Nc1ccccc1	inconclusive [inhibitor, single point]	
CC(C)CNC(=O)C(=O)NCC1OCCN1S(=O)(=O)c1cccs1 (stereo not given)		inactive: 3.85%
CC(C(=O)N1CCc2ccccc21)N1CCN(Cc2ccccc2)CC1 (stereo not given)	inconclusive [inhibitor, single point]	
CCC1(C)Cc2c(sc3c2c(=O)n(C)c2nnc(SCc4ccc5c(c4)OCO5)n32)CO1 (stereo not given)	inconclusive [inhibitor, partial curve]	
O=c1[nH]c2c(n(C3CCCCC3)c1=O)CCC2	inconclusive [inhibitor, single point]	
Cc1ccc(C(=O)N/C(=C\c2ccc(-c3ccc(Br)cc3)o2)C(=O)NCCCN(C)C)cc1	active: 3.26 µM	
O=C(Nc1cccc(Cl)c1)c1ccc(OC(=S)N2CCOCC2)cc1	inconclusive [inhibitor, single point]	
O=C(CSc1ccc(C(F)(F)F)cc1[N+](=O)[O-])NCCOc1ccccc1		inactive: -16.7%
CCCCN(C)S(=O)(=O)c1ccc(C(=O)N=c2sc3cc(NC(C)=O)ccc3n2C)cc1		inactive: -85.6%
O=C(NC1CCCc2ccccc21)c1cccc(S(=O)(=O)N2CCN(c3ccccc3)CC2)c1 (stereo not given)	inconclusive [inhibitor, partial curve]	
Nc1nonc1-c1noc(-c2ccccc2)n1		inactive: 0.804%
COc1ccc(NC(=O)N2CCCC3(CCN(C(=O)c4csnn4)CC3)C2)cc1		inactive: -0.981%
COC(=O)c1cc(S(=O)(=O)NC2CCC(C)CC2)cn1C (stereo not given)		inactive: 10.1%
CCOC(=O)c1c(-c2ccc(OC)cc2)oc2ccc(O)cc12	inconclusive [inhibitor, single point]	
N#Cc1cn(-c2ccccc2)nc1C(=O)c1ccccc1	active: 11.6 µM	
O=C(Nc1ccc(C(=O)N2CCCCC2)cc1)c1ccc([N+](=O)[O-])cc1	inconclusive [inhibitor, single point]	
CCc1ccc(C(=O)C[n+]2cccc3cc(OC)ccc32)cc1	active: 3.26 µM	
CCN(CC(=O)NCc1ccc(Cl)cc1)C(=O)/C=C/c1ccc(C#N)cc1	inconclusive [inhibitor, partial curve]	
CC(C)N(Cc1ccccc1)C(=O)Cn1ncc2c([nH]c3ccccc32)c1=O	inconclusive [inhibitor, single point]	

SMILES	Potency	activity change, negative = growth inhibition
COc1cc(C(=O)Nc2cc(S(=O)(=O)N3CCOCC3)ccc2N2CCOCC2)cc(OC)c1C	inconclusive [inhibitor, single point]	
COc1ccc(S(=O)(=O)N2CCC(C(=O)NCCC(=O)NCc3cccnc3)CC2)cc1		inconclusive: -7.95% [inhibitor]
COc1ccccc1CN1C[C@@H]2C[C@@H](C3=Cc4cc(Cl)ccc4OC3)N3CCC[C@@]23C1=O	inconclusive [inhibitor, single point]	
CCOc1cccc(C2C=C(c3ccc4c(c3)OCO4)NC(c3ccccc3F)N2)c1O (stereo not given)	active: 15.8 µM	
CCc1nc(SCC(=O)Nc2nc3c(s2)CCCC3)c2ccccc2n1	active: 13 µM	
COc1cccc(C(C(=O)NC2CCCC2)N(C(=O)c2ccco2)c2ccccc2F)c1OC (stereo not given)	inconclusive [inhibitor, partial curve]	
O=c1cc(CO)oc(C(Nc2ccccn2)c2ccc(F)cc2)c1O (stereo not given)		inactive: -5.15%
CCC(C)[C@H](N)c1nnc(SCC(=O)c2ccc(Cl)cc2)o1 (stereo not given in full)	active: 7.08 µM	
CCN1CCn2c3c(c4cccc(C)c42)CCCC31 (stereo not given)		inactive: -19%
CCC1CCCCN1CC(=O)Nc1cc(C)c2c(=O)oc3ccccc3c2n1 (stereo not given)		inactive: -8.64%
O=C(CSc1nc2c([nH]c3ccccc32)c(=O)n1-c1ccc(Cl)cc1)N1CCOCC1		inactive: 1.21%
O=C(c1ccc2nc(N3CCOCC3)sc2c1)N1CCC(Cc2ccccc2)CC1	active: 23.1 µM	
COc1cccc(CSc2nnc(-c3ccco3)n2C)c1		inactive: -21.3%
CCn1c(N2CCN(C(=O)c3ccco3)CC2)nc2ccccc21		inactive: -2.87%
O=C(CNS(=O)(=O)c1ccccc1)OCC(=O)c1ccc(OC(=O)c2ccccc2)cc1		inactive: -2.45%
COC(=O)Cc1c(C)nc2nc(Cc3ccccc3)[nH]n2c1=O	inconclusive [inhibitor, single point]	
COc1cc(OC)c(N(C)S(=O)(=O)c2cccc(C(=O)OCC(=O)N(C)C3CCCCC3)c2)cc1Cl	inconclusive [inhibitor, single point]	
O=C(N/N=C/c1c(O)ccc2ccccc12)c1cccnc1	active: 1.03 µM	
O=[N+]([O-])c1ccc(N2CCN(C(=S)Nc3ccc(F)cc3)CC2)cc1	active: 5.8 µM	
O=S(=O)(NCC(c1ccco1)N1CCOCC1)c1cc(F)ccc1F (stereo not given)		inactive: -9.31%
CC(=O)c1ccc(N2CCN(C(=O)c3ccc(S(=O)(=O)NCc4ccco4)cc3)CC2)cc1	active: 16.4 µM	
Cc1cccc(NC(=O)CSc2c(C)cnc3c2c(=O)n(C)c(=O)n3C)c1C	inconclusive [inhibitor, partial curve, poor fit]	
